Measurements as given in patent US20150374844A1, “NOVEL PH -SWITCHABLE PEPTIDES FOR MEMBRANE INSERTION AND PORE FORMATION” (UNIVERSITY OF PENNSYLVANIA, priority 2013, published 2015).
Several values for one entry are separate records, joined by “and”; a condition that tells them apart may be missing. Equal entries are not always repeated. At least one peptide structure holds a part that was inferred or is arguable (an end, a ring closure or a residue). Marks after values point to notes of the source that are not given here. No end group written: not given here.

Experiments:
[1] = tested on: Red Blood Cells (RBCs); experiment: ATP release from RBCs (ATPLite assay on supernatant); assay type: cell-based, human; conditions: 5 μM peptide, % compared to triton-x-100
[2] = tested on: Red Blood Cells (RBCs); experiment: Release of micro-RNA mir-16 from RBCs (stem-loop PCR); assay type: cell-based, human; conditions: 5 μM peptide, % compared to triton-x-100
[3] = tested on: SSB gene; experiment: siRNA co-transfection assay, RNA knockdown; assay type: cell-based; conditions: co-transfection of peptide and siRNA (target SSB gene)
[4] = Size exclusion chromatography (association state in aqueous system); assay type: physicochemical; conditions: 100 μM peptide
[5] = AUC sedimentation equilibrium in aqueous buffer; assay type: physicochemical; conditions: for Apparent MW (AUC, single-species fit): 100 μM peptide; for Association ΔG (kCal/mol monomer): = 2.303*RT*log(Kdissociation)/6; for −log(Kdissociation): monomer-hexamer equilibrium fit
[6] = Circular dichroism and thermal denaturation; assay type: physicochemical; conditions: for ΔH (kcal/mol monomer): Gibbs-Helmholtz fit of thermal denaturation; for Tm (K): reference concentration 4 μM
[7] = AUC sedimentation equilibrium in C-14 betaine detergent micelles; assay type: physicochemical; conditions: C-14 betaine micelles; both pH 7.4 and pH 5.5

WSELAKALSELAKALSELAKALSELAKA [PSPF-EKA, WSELAKA LSELAKA LSELAKA LSELAKA]
% ATP at 5 μM ([1]; pH 5.4): 3.66%
% ATP at 5 μM ([1]; pH 7.5): 2.02%
% miRNA at 5 μM ([2]; pH 5.4): 0.21%
% miRNA at 5 μM ([2]; pH 7.5): 0.51%
% RNA KD [3]: 5.0%

WSELAKGLSELAKGLSELAKGLSELAKG [PSPF-EKG, WSELAKG LSELAKG LSELAKG LSELAKG]
Apparent MW (SEC) ([4]; pH 5.5, major peak): 15,000^#
Apparent MW (SEC) ([4]; pH 7.4): 19,000
Oligomerization State (AUC) = Apparent MW/Monomer MW ([5]; pH 5.5): 5.5
Apparent MW (AUC, single-species fit) ([5]; pH 5.5): 16,000±30
Association ΔG (kCal/mol monomer) ([5]; pH 5.5): −5.6 kCal/mol monomer
−log(Kdissociation) ([5]; pH 5.5): 24.8 ± 0.1
increase of free energy of helix bundle upon pH decrease ([5]; pH 5.5 versus pH 7.4): 0.7 kcal/mol monomer
Oligomerization State (AUC) = Apparent MW/Monomer MW ([5]; pH 7.4): 6.2
Apparent MW (AUC, single-species fit) ([5]; pH 7.4): 18,000±30
Association ΔG (kCal/mol monomer) ([5]; pH 7.4): −6.3 kCal/mol monomer
−log(Kdissociation) ([5]; pH 7.4): 28.0 ± 0.4
secondary structure by circular dichroism ([6]; both pH 7.4 and pH 5.5): alpha-helical secondary structure
[PSPF-EKG] at 50% fold and 300 K ([6]; pH 5.5): 0.31 µM
ΔH (kcal/mol monomer) ([6]; pH 5.5): 19.6 kcal/mol monomer and 19.6 ± 0.1 kcal/mol monomer
Tm (K) ([6]; pH 5.5): 333.4 K and 333.4 ± 0.1 K
[PSPF-EKG] at 50% fold and 300 K ([6]; pH 7.4): 0.14 µM
ΔH (kcal/mol monomer) ([6]; pH 7.4): 22.0 kcal/mol monomer and 22.0 ± 0.1 kcal/mol monomer
Tm (K) ([6]; pH 7.4): 339.0 K and 339.0 ± 0.1 K
Tm difference, pH 7.4 higher than pH 5.5 ([6]; pH 7.4 versus pH 5.5): 5.6 K
enthalpy at pH 7.4 higher than at pH 5.5 ([6]; pH 7.4 versus pH 5.5): approximately 12%
% RNA KD [3]: 5.0%
oligomerization in detergent micelles [7]: weak oligomerization

WSELAQALSELAQALSELAQALSELAQA [PSPF-EQA, WSELAQA LSELAQA LSELAQA LSELAQA]
% ATP at 5 μM ([1]; pH 5.4): 3.61%
% ATP at 5 μM ([1]; pH 7.5): 3.69%
% miRNA at 5 μM ([2]; pH 5.4): 0.02%
% miRNA at 5 μM ([2]; pH 7.5): 0.46%
% RNA KD [3]: −2.0%

WSELAQGLSELAQGLSELAQGLSELAQG [PSPF-EQG, WSELAQG LSELAQG LSELAQG LSELAQG]
% ATP at 5 μM ([1]; pH 5.4): 9.52%
% ATP at 5 μM ([1]; pH 7.5): 3.36%
% miRNA at 5 μM ([2]; pH 5.4): 2.64%
% miRNA at 5 μM ([2]; pH 7.5): 0.15%
% RNA KD [3]: −1.0%

WSHLAKALSHLAKALSHLAKALSHLAKA [PSPF-HKA, WSHLAKA LSHLAKA LSHLAKA LSHLAKA]
% ATP at 5 μM ([1]; pH 5.4): 5.7%
% ATP at 5 μM ([1]; pH 7.5): 0.93%
% miRNA at 5 μM ([2]; pH 5.4): 0.02%
% miRNA at 5 μM ([2]; pH 7.5): 0.43%
% RNA KD [3]: 78.0%

WSHLAKGLSHLAKGLSHLAKGLSHLAKG [PSPF-HKG, WSHLAKG LSHLAKG LSHLAKG LSHLAKG]
% miRNA at 5 μM ([2]; pH 5.4): 0.44%
% miRNA at 5 μM ([2]; pH 7.5): 72.28%
% RNA KD [3]: 74.0%

WSHLAQALSHLAQALSHLAQALSHLAQA [PSPF-HQA, WSHLAQA LSHLAQA LSHLAQA LSHLAQA]
% ATP at 5 μM ([1]; pH 5.4): 11.72%
% ATP at 5 μM ([1]; pH 7.5): 6.17%
% miRNA at 5 μM ([2]; pH 5.4): 1.43%
% miRNA at 5 μM ([2]; pH 7.5): 0.02%
% RNA KD [3]: 13.0%

WSHLAQGLSHLAQGLSHLAQGLSHLAQG [PSPF-HQG, WSHLAQG LSHLAQG LSHLAQG LSHLAQG]
% ATP at 5 μM ([1]; pH 5.4): 10.55%
% ATP at 5 μM ([1]; pH 7.5): 5.69%
% miRNA at 5 μM ([2]; pH 5.4): 0.64%
% miRNA at 5 μM ([2]; pH 7.5): 0.2%
% RNA KD [3]: 11.0%
